In PMC3958441, “Isl1 and Pou4f2 Form a Complex to Regulate Target Genes in Developing Retinal Ganglion Cells” (PLoS ONE, 2014):
No constants are given. Whether binding was seen depends on the method and setting. For part of these data: Binding seen in cells or lysates may run through a third protein. Some entries that bind do so weakly or less than the wild type. Where a sequence is shown, tags or fusion partners need not be part of it.

T1: GST-Pou4f2 fusion protein (mouse) (UniProt Q63934)
T1 sequence: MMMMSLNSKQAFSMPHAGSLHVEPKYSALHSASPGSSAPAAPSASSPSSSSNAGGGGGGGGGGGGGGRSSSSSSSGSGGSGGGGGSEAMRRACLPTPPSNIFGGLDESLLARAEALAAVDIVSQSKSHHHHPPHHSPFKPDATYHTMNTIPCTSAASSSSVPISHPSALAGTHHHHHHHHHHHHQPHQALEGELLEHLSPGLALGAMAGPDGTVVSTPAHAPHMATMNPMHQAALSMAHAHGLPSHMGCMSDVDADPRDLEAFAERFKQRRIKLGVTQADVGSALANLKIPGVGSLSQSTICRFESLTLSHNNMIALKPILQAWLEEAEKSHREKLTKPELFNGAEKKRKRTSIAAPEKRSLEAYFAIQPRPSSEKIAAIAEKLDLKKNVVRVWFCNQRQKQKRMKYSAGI

T2: GST-Isl1 fusion protein (mouse) (UniProt P61372)
T2 sequence: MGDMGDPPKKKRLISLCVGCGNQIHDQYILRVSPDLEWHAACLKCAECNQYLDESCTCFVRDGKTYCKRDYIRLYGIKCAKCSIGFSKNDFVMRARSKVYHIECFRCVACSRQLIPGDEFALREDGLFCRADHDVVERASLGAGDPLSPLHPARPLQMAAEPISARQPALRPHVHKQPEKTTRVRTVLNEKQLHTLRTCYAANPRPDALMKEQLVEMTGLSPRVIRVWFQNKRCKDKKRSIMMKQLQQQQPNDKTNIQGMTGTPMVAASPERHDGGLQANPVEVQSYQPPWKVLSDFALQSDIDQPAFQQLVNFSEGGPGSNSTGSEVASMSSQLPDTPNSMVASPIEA

B1: Lhx2, full-length, His-tagged (protein, UniProt Q9Z0S2 1-406)
chain: MLFHSLSGPEVHGVIDEMDRRAKSEAPAISSAIDRGDTETTMPSISSDRAALCAGCGGKISDRYYLLAVDKQWHMRCLKCCECKLNLESELTCFSKDGSIYCKEDYYRRFSVQRCARCHLGISASEMVMRARDLVYHLNCFTCTTCNKMLTTGDHFGMKDSLVYCRLHFEALLQGEYPAHFNHADVAAAAAAAAAAKSAGLGSAGANPLGLPYYNGVGTVQKGRPRKRKSPGPGADLAAYNAALSCNENDAEHLDRDQPYPSSQKTKRMRTSFKHHQLRTMKSYFAINHNPDAKDLKQLAQKTGLTKRVLQVWFQNARAKFRRNLLRQENTGVDKTSDATLQTGTPSGPASELSNASLSPSSTPTTLTDLTSPTLPTVTSVLTSVPGNLEGHEPHSPSQTTLTNLF
B2: Isl1D3 (a.a. 170-349) (domain or fragment, mouse, UniProt P61372 170-349, looked up)
chain: LRPHVHKQPEKTTRVRTVLNEKQLHTLRTCYAANPRPDALMKEQLVEMTGLSPRVIRVWFQNKRCKDKKRSIMMKQLQQQQPNDKTNIQGMTGTPMVAASPERHDGGLQANPVEVQSYQPPWKVLSDFALQSDIDQPAFQQLVNFSEGGPGSNSTGSEVASMSSQLPDTPNSMVASPIEA
notes: Isl1, mouse, a.a; 170-349, only the homeodomain and the C terminal region, none of the Lim domains; source: E. coli, in lysate (pull-down); purified on His SpinTrap columns (EMSA); not shown: His tag, C-terminal, kept
B3: Isl1, full-length, His-tagged (natural protein, mouse, UniProt P61372 1-349, looked up)
chain: T2 sequence
notes: Isl1, mouse, full-length coding region in pET-28a(+); 349 a.a; source: E. coli, in lysate (pull-down); purified on His SpinTrap columns (EMSA); not shown: His tag, C-terminal, kept
B4: Lhx1, full-length, His-tagged (protein, UniProt P63006 1-406)
chain: MVHCAGCKRPILDRFLLNVLDRAWHVKCVQCCECKCNLTEKCFSREGKLYCKNDFFRCFGTKCAGCAQGISPSDLVRRARSKVFHLNCFTCMMCNKQLSTGEELYIIDENKFVCKEDYLSNSSVAKENSLHSATTGSDPSLSPDSQDPSQDDAKDSESANVSDKEGGSNENDDQNLGAKRRGPRTTIKAKQLETLKAAFAATPKPTRHIREQLAQETGLNMRVIQVWFQNRRSKERRMKQLSALGARRHAFFRSPRRMRPLVDRLEPGELIPNGPFSFYGDYQSEYYGPGGNYDFFPQGPPSSQAQTPVDLPFVPSSGPSGTPLGGLDHPLPGHHPSSEAQRFTDILAHPPGDSPSPEPSLPGPLHSMSAEVFGPSPPFSSLSVNGGASYGNHLSHPPEMNEAAVW
B5: Isl1D4 (a.a. 146-349) (domain or fragment, mouse, UniProt P61372 146-349, looked up)
chain: PLSPLHPARPLQMAAEPISARQPALRPHVHKQPEKTTRVRTVLNEKQLHTLRTCYAANPRPDALMKEQLVEMTGLSPRVIRVWFQNKRCKDKKRSIMMKQLQQQQPNDKTNIQGMTGTPMVAASPERHDGGLQANPVEVQSYQPPWKVLSDFALQSDIDQPAFQQLVNFSEGGPGSNSTGSEVASMSSQLPDTPNSMVASPIEA
notes: Isl1, mouse, a.a; 146-349; source: E. coli, in lysate (pull-down); purified on His SpinTrap columns (EMSA); not shown: His tag, C-terminal, kept
B6: Isl2, full-length (protein, UniProt Q9CXV0 1-359)
chain: MVDIIFHYPFLGAMGDHSKKKPGTAMCVGCGSQIHDQFILRVSPDLEWHAACLKCAECSQYLDETCTCFVRDGKTYCKRDYVRLFGIKCAQCQVGFSSSDLVMRARDSVYHIECFRCSVCSRQLLPGDEFSLREHELLCRADHGLLLERAAAGSPRSPGPLPGARGLHLPDAGSGRQPSLRTHVHKQAEKTTRVRTVLNEKQLHTLRTCYAANPRPDALMKEQLVEMTGLSPRVIRVWFQNKRCKDKKKSILMKQLQQQQHSDKASLQGLTGTPLVAGSPIRHENAVQGSAVEVQTYQPPWKALSEFALQSDLDQPAFQQLVSFSESGSLGNSSGSDVTSLSSQLPDTPNSMVPSPVET
B7: Isl1D5 (a.a. 74-349) (domain or fragment, mouse, UniProt P61372 74-349, looked up)
chain: LYGIKCAKCSIGFSKNDFVMRARSKVYHIECFRCVACSRQLIPGDEFALREDGLFCRADHDVVERASLGAGDPLSPLHPARPLQMAAEPISARQPALRPHVHKQPEKTTRVRTVLNEKQLHTLRTCYAANPRPDALMKEQLVEMTGLSPRVIRVWFQNKRCKDKKRSIMMKQLQQQQPNDKTNIQGMTGTPMVAASPERHDGGLQANPVEVQSYQPPWKVLSDFALQSDIDQPAFQQLVNFSEGGPGSNSTGSEVASMSSQLPDTPNSMVASPIEA
notes: Isl1, mouse, a.a; 74-349; source: E. coli, in lysate (pull-down); purified on His SpinTrap columns (EMSA); not shown: His tag, C-terminal, kept
B8: Pou4f2D2 (a.a. 1-330) (domain or fragment, UniProt Q63934 1-330)
chain: MMMMSLNSKQAFSMPHAGSLHVEPKYSALHSASPGSSAPAAPSASSPSSSSNAGGGGGGGGGGGGGGRSSSSSSSGSGGSGGGGGSEAMRRACLPTPPSNIFGGLDESLLARAEALAAVDIVSQSKSHHHHPPHHSPFKPDATYHTMNTIPCTSAASSSSVPISHPSALAGTHHHHHHHHHHHHQPHQALEGELLEHLSPGLALGAMAGPDGTVVSTPAHAPHMATMNPMHQAALSMAHAHGLPSHMGCMSDVDADPRDLEAFAERFKQRRIKLGVTQADVGSALANLKIPGVGSLSQSTICRFESLTLSHNNMIALKPILQAWLEEAEK
B9: Pou4f2D3 (a.a. 240-411) (domain or fragment, UniProt Q63934 240-411)
chain: AHGLPSHMGCMSDVDADPRDLEAFAERFKQRRIKLGVTQADVGSALANLKIPGVGSLSQSTICRFESLTLSHNNMIALKPILQAWLEEAEKSHREKLTKPELFNGAEKKRKRTSIAAPEKRSLEAYFAIQPRPSSEKIAAIAEKLDLKKNVVRVWFCNQRQKQKRMKYSAGI
B10: Pou4f3, full-length, His-tagged (protein, UniProt Q63955 1-338)
chain: MMAMNAKQPFGMHPVLQEPKFSSLHSGSEAMRRVCLPAPQLQGNIFGSFDESLLARAEALAAVDIVSHGKNHPFKPDATYHTMSSVPCTSTSPTVPISHPAALTSHPHHAVHQGLEGDLLEHISPTLSVSGLGAPEHSVMPAQIHPHHLGAMGHLHQAMGMSHPHAVAPHSAMPACLSDVESDPRELEAFAERFKQRRIKLGVTQADVGAALANLKIPGVGSLSQSTICRFESLTLSHNNMIALKPVLQAWLEEAEAAYREKNSKPELFNGSERKRKRTSIAAPEKRSLEAYFAIQPRPSSEKIAAIAEKLDLKKNVVRVWFCNQRQKQKRMKYSAVH
B11: Pou4f2D1 (a.a. 1-260) (domain or fragment, UniProt Q63934 1-260)
chain: MMMMSLNSKQAFSMPHAGSLHVEPKYSALHSASPGSSAPAAPSASSPSSSSNAGGGGGGGGGGGGGGRSSSSSSSGSGGSGGGGGSEAMRRACLPTPPSNIFGGLDESLLARAEALAAVDIVSQSKSHHHHPPHHSPFKPDATYHTMNTIPCTSAASSSSVPISHPSALAGTHHHHHHHHHHHHQPHQALEGELLEHLSPGLALGAMAGPDGTVVSTPAHAPHMATMNPMHQAALSMAHAHGLPSHMGCMSDVDADPRDL
B12: Pou4f2D4 (a.a. 169-411) (domain or fragment, UniProt Q63934 169-411)
chain: LAGTHHHHHHHHHHHHQPHQALEGELLEHLSPGLALGAMAGPDGTVVSTPAHAPHMATMNPMHQAALSMAHAHGLPSHMGCMSDVDADPRDLEAFAERFKQRRIKLGVTQADVGSALANLKIPGVGSLSQSTICRFESLTLSHNNMIALKPILQAWLEEAEKSHREKLTKPELFNGAEKKRKRTSIAAPEKRSLEAYFAIQPRPSSEKIAAIAEKLDLKKNVVRVWFCNQRQKQKRMKYSAGI
B13: Pou4f2, full-length, His-tagged (protein, UniProt Q63934 1-411)
chain: T1 sequence
B14: Pou4f2D5 (a.a. 125-411) (domain or fragment, mouse, UniProt Q63934 125-411, looked up)
chain: SKSHHHHPPHHSPFKPDATYHTMNTIPCTSAASSSSVPISHPSALAGTHHHHHHHHHHHHQPHQALEGELLEHLSPGLALGAMAGPDGTVVSTPAHAPHMATMNPMHQAALSMAHAHGLPSHMGCMSDVDADPRDLEAFAERFKQRRIKLGVTQADVGSALANLKIPGVGSLSQSTICRFESLTLSHNNMIALKPILQAWLEEAEKSHREKLTKPELFNGAEKKRKRTSIAAPEKRSLEAYFAIQPRPSSEKIAAIAEKLDLKKNVVRVWFCNQRQKQKRMKYSAGI
notes: Pou4f2, mouse, a.a; 125-411, POU and homeo domains intact; source: E. coli, in lysate (pull-down); purified on His SpinTrap columns (EMSA); not shown: His tag, C-terminal, kept

target: T1, GST-Pou4f2 fusion protein (mouse); assay: pull-down; GST pull-down: about 20 ug of GST or GST-fusion E. coli lysate and 20 ug of non-fusion protein lysate in 125 mM Tris-HCl, 150 mM NaCl, pH 8.0, 4 C; glutathione magnetic beads, 6 washes; Western blotting

| binding | Binder |
| --- | --- |
| binds | B1 |
| binds | B2 |
| binds | B3 |
| no binding | B4 |
| binds | B5 |
| binds | B6 |
| binds | B7 |

target: T2, GST-Isl1 fusion protein (mouse); assay: as above

| binding | Binder |
| --- | --- |
| no binding | B8 |
| no binding | B9 |
| binds | B10 |
| no binding | B11 |
| binds | B12 |
| binds | B13 |
| binds | B14 |

target: B3; assay: native gel or EMSA; EMSA with purified His-tagged proteins (200 ng each) and radiolabelled DNA probes (SBRN3, CBRN3; Ebf3 and Irx6 for Isl1 with Pou4f2D5); protein-protein complex read from a slower migrating ternary complex on DNA; 20 mM Tris-HCl pH 7.5, 0.05 M NaCl, 10 mM DTT, 1 mM EDTA, 5% glycerol, 4 C; both purified

| binding | Binder |
| --- | --- |
| no binding | B8 |
| no binding | B9 |
| no binding | B11 |
| binds | B12 |
